Laboratory results from patent publication US20260265780A1.

Molecular target: CD8 (protein not named in Table 16)

B1: CD8 binder 46 (scFv) (scFv, V domains shown)
VH: QVQLVQSGAEVKKPGASVKVSCKASGYTFTSYYMHWVRQAPGQGLEWMGGFDPEDGETIYAQKFQGRVTMTRDTSTSTVYMELSSLRSEDTAVYYCARDQGWGMDVWGQGTTVTVSS
VL: [about 100 residues cut from this listing]
B1 showed a Highest Response (nm) of 0.491 nm, a Kd of 95.2 nM and a koff of 0.00821 s⁻¹. For the same binder, the kon was 86300 M⁻¹ s⁻¹.
